Results reported in the supplement of paper PMC11417369.
The other results are listed elsewhere or left out.

system: PF3D7_0420300 AP2 domain 1 (GST-tagged); assay: gcPBM binding intensity (ln(normalized median fluorescence intensity)); higher = stronger DNA binding
Summary of the method: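 DNA-binding domains from P. falciparum, fused to GST and produced in E. coli, were put on an Agilent 4 × 180k double-stranded probe array for 1 h in 1× PBS holding 1% milk, 0.2 mg/ml BSA, 0.5% salmon testes DNA and 0.03% Triton X-100. Probes were primer-extended, 36 bp long and drawn from intergenic genomic regions, with negative controls included. After Alexa488 anti-GST antibody detection and a 488 nm scan, binding intensity was set as the highest Masliner-normalised natural-log median intensity across replicate spots of either probe orientation.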

Row | Sequence | gcPBM binding intensity (ln)
1 | TGTATCATAAAAATAACACACGTATTTTTTTTTATT [CACACA_site1050] | 9.38
2 | TTATTTATATATTCATGTACATAACATTTCATTCGA [XGTACX_site4388] | 9.06
3 | TTTTAAGAATAAAATTGTACACATACATGTGTTCGC [XGTACX_site438] | 9.09
4 | ATATAAATTTTTTAGAGTACTAAAATAAAATAATAT [XGTACX_site2118] | 9.02
5 | TTCTCATTCAAATTAGTGCATTTTTGTTATTACATT | 9.46
6 | TGTGTATATATATAATGTACATAAAGATTTATATAT [XGTACX_site5835] | 9.28
7 | AACAGATAAAAGGGTACACACATATATACCTGTACA [CACACA_site4285] | 9.64
8 | TACATAAATATATGTGTGCACAATTTCGTATATTTA [GTGCAC_site9859] | 9.44
9 | TGTACATTCGGAGTAAAAAAAAATTTATACAATTAC [CACACA_negctrl_site1451] | 9
10 | TGTATTAAATTTTGAACACACAAAATAAAACATATA [CACACA_site1672] | 9.37
11 | AAAATCACAAGACACACACACACAAAAAAAAAAAAA [CACACA_site6791] | 10
12 | AGTATAAAATAAATGTGTACACAAGAAAATATGTTA [XGTACX_site8381] | 9.58
13 | ATATATATATGTATGTGTCCACAAGGAGATATATAT [XGTACX_site783] | 9.6
14 | AAAATATTTTAATGTTGTACATTAATATATTATATA [XGTACX_site2513] | 8.93
15 | AGTAAATAATAGATCGCATGTAATAACTAGTAGGAA [TGCATGCA_site948] | 9.57
16 | ATTATAAAGACATATACACACATACGTACATACATA [CACACA_site5893] | 9.77
17 | ACAATTGAAGAAATACGTACATAAAGAAAAACTAGT [XGTACX_site820] | 9.65
18 | TCGTATCTATTGAGGGTGCCTCTATAATTGATACAA [GTGCAC_site9636] | 8.89
19 | AACCTAAGCATTCTTCAAATTATATATGTAAAATGA [CACACA_negctrl_site261] | 9.03
20 | TAATATAATATATGCACACAAATATGTATTTATGTG [CACACA_site5210] | 9.64
21 | GAAAAAATAAAATAAAGTACATAACTATAATAAAAA [XGTACX_site4807] | 9.53
22 | CTTACACCCATATATACACACATGTATATTTTATAT [CACACA_site4462] | 9.64

Row | Sequence | gcPBM binding intensity (ln)
23 | TACTCCTCAATATTATGTACATATAATAGTTATAAA [XGTACX_site8551] | 9.23
24 | ATATATAAACACTCTTGTACATAATAATGTATATAT [XGTACX_site2451] | 9.27
25 | TTTCAAAAAAATAGCTATATTTATATTAATGCACGA [TGCATGCA_negctrl_site63] | 9.09
26 | TATATAACTGTCTTCAGTACACAATAAATAAAAATA [XGTACX_site8856] | 9.19
27 | TAATAAAAATAAAATTGTACTAATAACATTTCATTA [XGTACX_site3703] | 8.94
28 | AAAGGTGTATATAATACACACGTGTGATTAAAATTG [CACACA_site8104] | 9.48
29 | AACTTTGAGACATAGTGTACTTACACAATCTTAATA [XGTACX_site3712] | 9.14
30 | ACATTTTTTTTTTTTTTTCTTTTTCTTTTTCTTTTT [CACACA_negctrl_site1295] | 9.53
31 | CATATTTGATACAAGTGTACTTTATTTAAAAATTCT [XGTACX_site8408] | 9.01
32 | TATTTAATGCAAAAACGTACATAAATAACATTCACA [XGTACX_site5356] | 9.19
33 | TATAAACACCCATATAAACACACATACATACATACA [CACACA_site8791] | 9.58
34 | TATATATATATTAGTGGTACAAGATTTTTTTCTTTT [XGTACX_site4619] | 9.24
35 | CTAGACTTTTTACAATGTACATATTTATGTATTATT [XGTACX_site1833] | 9.23
36 | TCTTGTAGATATATTTGTACATATATTTATGGGTAT [XGTACX_site1139] | 9.44
37 | TTTTTTCATAAATAATGTACATATATATATATATAT [XGTACX_site3620] | 9.07
38 | ATATTATTTATAAGTTGTACGGTATAATATAATATA [XGTACX_site5371] | 9.14
39 | AAAAAATATATATTAACACACACACTAATAAAAAAA [CACACA_site8366] | 10
40 | ACGCACGAAATAAATACATGCATATTGTAAAAATTA [TGCATGCA_site310] | 8.94
41 | GGGAATATATTCAATTGTACATTCTTATTTTATCCA [XGTACX_site8480] | 9.26
42 | TCTTTTTTTTTACATACTTTTTTCCTTTTTTTTTTA [CACACA_negctrl_site1429] | 9.46
43 | GTTGTTTCTATAAATTGTACTTAAATATAATTATAT [XGTACX_site585] | 9.43
44 | ATATATTGTATGTGCTCACACATGTTTCGATATTAT [CACACA_site4336] | 9.51

Row | Sequence | gcPBM binding intensity (ln)
45 | GTAAATATGTTTATTAGTACACATATGAAAATAAAT [XGTACX_site5820] | 9.27
46 | GTTCAAAATATGAACACACACATATATATATATATA [CACACA_site2057] | 9.44
47 | TTTCGTAATATGCGTGTGCACAATGAGTCCATATCT | 9.47
48 | ATCTACATATATTATTGTACATTGTTAAAAATTTAT [XGTACX_site7769] | 9.32
49 | TAAAATATAATTAGCACACATATATAAAATATATAT [CACACA_site4093] | 9.33
50 | TTTTTTTTTTTTTGGGGTACATTTTAATTAATATTA [XGTACX_site4866] | 9.32
51 | AACACACACATATATATATATATATATATATATATA [GTGCAC_negctrl_site573] | 9.48
52 | TTTTTAATATTGTATGCATGTCGTAATAAAAAATTT [TGCATGCA_site259] | 9.02
53 | ATAATAAACATATATGTACACACATATACATATATA [CACACA_site8924] | 9.48
54 | ATATACTATTAACCACATATGTGTGTTAATTTATAT [GTGCAC_negctrl_site315] | 9.45
55 | TTGAACCCCACTAACACACACACGCACGCTCAGAAA [CACACA_site2983] | 9.73
56 | TGCTATTTCATATTCTGTACTAAAACAAGATAATAA [XGTACX_site3852] | 8.88
57 | ATATTAATTATAACTTGTACGTAAAAGGAAAACAAT [XGTACX_site3269] | 9.59
58 | TAGAAACTATGTAATGCACACCAAAATAAAATTATT [CACACA_site8578] | 9.45
59 | TTTTGGATACTTCATTTGTCCTGTTTTTTTTTTTTA [CACACA_negctrl_site399] | 9.5
60 | TTTTAAAAAATAAAATATTATTGAAGTAAAATATGA [CACACA_negctrl_site758] | 8.91
61 | AAAATATATCAAAACACACTCACATATAATACTTAC [CACACA_site6031] | 9.77
62 | TATATACTTATATACTGTACTCATCATCTTTTAAAG [XGTACX_site6099] | 9.28
63 | TTTTTTTTTTTTTAAACATGCAAAATATATAATTTT [TGCATGCA_site633] | 8.84
64 | TAATATATCTATAATACACACTATTCTAATCACATA [CACACA_site6731] | 9.27
65 | ATATATGAAAATATATGTACACAACATATAAAATAG [XGTACX_site5132] | 9.41
66 | TTTTCATTCTTATATAAATATTATTTTATATAAAAT [GTGCAC_negctrl_site674] | 8.9

Row | Sequence | gcPBM binding intensity (ln)
67 | AATTATATACCATGCACACAAATATTCATACAGGAA [CACACA_site4057] | 9.7
68 | AAAAATATATATATATTTCTTCTTTGTTAAAATGTA [CACACA_negctrl_site1459] | 8.88
69 | GTAGAATCAGTATTCACACATAAATGTATCCAAATG [CACACA_site5395] | 9.17
70 | ATATATATATATAGAAGTACTCTTATATATTTTATA [XGTACX_site1384] | 9.04
71 | GATATGGAATATATGTGTACATATATATATATTATA [XGTACX_site1724] | 9.2
72 | AAAAAAAAAAAAAATACACACACATAAAAAAAAAAA [CACACA_site8555] | 9.95
73 | CAAATTTTTAAAAATGCATGTTCATCCATCCCATAT [TGCATGCA_site467] | 9.05
74 | TTTGTATGATCATAAAGTACTAATTTACATTCAGCA [XGTACX_site8596] | 8.94
75 | TTTTTTACATTCTGCACACAATTTATTTTTTTTTTT [CACACA_site4188] | 9.68
76 | TTATGGAAAAATATAACACACAATGATTTTTTATAA [CACACA_site1831] | 9.35
77 | TTTTCGCTTTTATAAAATTATATGAAAAAACTAAAA [XGTACX_negctrl_site139] | 8.73
78 | ATTTATATAAAATTAAAATAATACAAATTTATTCAT [GTGCAC_negctrl_site305] | 8.98
79 | TATAACTATGGGTGTACACATTAATCGTTTTTCTTT [CACACA_site5196] | 9.42
80 | TATTGTAAAAAAGCAAAATTTATCACCTCCTTATTT [CACACA_negctrl_site172] | 9.2
81 | TGTAATACATGTTGTTGTACAATATCTTTAACTTTT [XGTACX_site1219] | 9.3
82 | CCACTAAAGGCATATACACACATTTTTTAAATTGCC [CACACA_site2839] | 9.36
83 | TACACAAAAATAAACACACACACATATAAATAAATA [CACACA_site6599] | 10.2
84 | TAATACATAAATAATGTGCACATGGAAATATATCTT | 9.53
85 | TATTTTATATACAGTGGTACTTTTTTTTTTTTTTTT [XGTACX_site2475] | 9.02
86 | AAAAAAAAAAAAAAATCACACACAATATGAATTTAT [CACACA_site8100] | 9.55
87 | ACATATATATTATAAGCATGCATGAGAAAATTTTTA [TGCATGCA_site1054] | 9.19
88 | AAAAAAAAAAAAAAAACACACATTTGAAGAAAAAAA [CACACA_site7389] | 9.38
